Measurements reported in publication PMC4336329 (PLoS ONE, 2015).
The whole screen tested about 310,000 compounds, of which about 14,000 (4.5%) showed an effect of 50% or more. Effects have a minus sign here. Some of the results follow.

Each compound was assayed against human ether-à-go-go-related gene (hERG) potassium channel (human, UniProt Q12809) (assay: primary screen, population patch clamp on CHO cells stably expressing hERG).
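Note: peak tail current of the secondary pulse compared with the same well before compound.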

Chain of human ether-à-go-go-related gene (hERG) potassium channel (Q12809 whole entry, looked up): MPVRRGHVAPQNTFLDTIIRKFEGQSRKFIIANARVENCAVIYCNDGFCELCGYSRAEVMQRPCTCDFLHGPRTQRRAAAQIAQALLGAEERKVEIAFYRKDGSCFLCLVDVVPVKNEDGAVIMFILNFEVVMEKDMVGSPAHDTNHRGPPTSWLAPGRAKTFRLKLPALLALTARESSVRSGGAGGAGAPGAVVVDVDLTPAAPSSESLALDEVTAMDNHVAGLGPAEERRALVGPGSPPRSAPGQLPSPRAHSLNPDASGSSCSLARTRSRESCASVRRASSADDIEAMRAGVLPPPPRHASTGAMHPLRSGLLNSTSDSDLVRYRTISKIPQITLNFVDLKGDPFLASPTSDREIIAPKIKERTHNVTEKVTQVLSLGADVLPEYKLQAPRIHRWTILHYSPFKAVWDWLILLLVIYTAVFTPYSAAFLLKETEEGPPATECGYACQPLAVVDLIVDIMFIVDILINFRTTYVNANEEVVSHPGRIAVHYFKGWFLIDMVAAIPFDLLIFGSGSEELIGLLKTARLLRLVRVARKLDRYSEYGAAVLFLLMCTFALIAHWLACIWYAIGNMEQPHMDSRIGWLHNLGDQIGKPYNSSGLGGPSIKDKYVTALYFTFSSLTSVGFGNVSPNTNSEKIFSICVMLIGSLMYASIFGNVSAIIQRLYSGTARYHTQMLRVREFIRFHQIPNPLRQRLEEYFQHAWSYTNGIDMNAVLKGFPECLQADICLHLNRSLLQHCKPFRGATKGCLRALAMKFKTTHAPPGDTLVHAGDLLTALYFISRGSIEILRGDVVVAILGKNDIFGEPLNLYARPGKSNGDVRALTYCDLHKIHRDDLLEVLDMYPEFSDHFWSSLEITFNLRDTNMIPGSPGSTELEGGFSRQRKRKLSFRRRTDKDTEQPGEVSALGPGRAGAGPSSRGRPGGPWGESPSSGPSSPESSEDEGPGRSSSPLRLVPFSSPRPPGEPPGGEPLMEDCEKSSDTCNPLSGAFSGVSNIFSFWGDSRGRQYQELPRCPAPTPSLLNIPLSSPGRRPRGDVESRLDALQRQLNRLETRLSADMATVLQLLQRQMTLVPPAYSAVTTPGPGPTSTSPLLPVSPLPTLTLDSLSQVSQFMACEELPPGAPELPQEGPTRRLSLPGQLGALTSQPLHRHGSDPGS

Structure (SMILES) | hERG current change (%, negative = inhibition) at 10uM [%]
CCOc1cccc2sc(N(CCN(C)C)C(=O)/C=C/c3cccs3)nc12.Cl | -40.7
O=C(COC(=O)/C=C/c1cccc(C(F)(F)F)c1)NC1CCCCCC1 | -0.0149
O=C(O)c1cc(-c2ccncc2)nc2ccc(S(=O)(=O)N3CCOCC3)cc12 | 6.02
CCOC(=O)CN1CC23C=CC(O2)C(C(=O)NC2CCCC2)C3C1=O (centres unmarked) | 2.55
CCC(C)(C)C1CCc2c(sc(NC(=O)c3cccs3)c2C(N)=O)C1 (centres unmarked) | 17.3
O=C(CN1CCN(Cc2ccccc2)CC1)N/N=C/C=C/c1ccccc1[N+](=O)[O-] | -74.2
C=C(C)c1ccc(C(C)(C)NC(=O)NCc2ccco2)cc1 | -5.58
Cc1c(C=O)c2ccccn2c1C(=O)c1ccncc1 | -12.7
COc1ccc(NC(=O)C(F)(F)F)cc1OC | 15.1
CCOc1ccc(CSC2=NCCN2)cc1Cl.Cl | -50.9
CC(C)SCC(=O)Nc1ncc2c(n1)-c1ccccc1CC2 | 7.72
Cc1cc(=O)[nH]c(SCCCOc2ccc(F)cc2)n1 | -10.3
CN1C(=O)C2(NCCc3c2[nH]c2ccccc32)c2ccccc21 (centres unmarked) | 11
CNC(=S)N1N=C(c2ccc(C)cc2)CC1c1cc(OC)ccc1OC (centres unmarked) | 6.63
Cc1ccc(S(=O)(=O)c2ncccc2[N+](=O)[O-])cc1 | -64
COC(=O)c1c(C)[nH]c(C(=O)COC(=O)c2c(C)noc2C)c1C | 8.44
COc1ccc(Nc2nc(C)cc(C)c2C#N)cc1 | 12.4
N=C1C(c2ccccc2)=C(O)CN1NC(=O)c1ccc(Cl)cc1 | 15.3
COc1ccccc1NC(=S)NC(=O)CCc1ccccc1 | 1.83
O=C(NC(=S)Nc1cccnc1Cl)c1ccc(F)cc1 | 15.3

Structure (SMILES) | hERG current change (%, negative = inhibition) at 10uM [%]
COc1ccc(-n2c(=O)cc(N3CCc4ccccc43)[nH]c2=O)cc1 | -0.92
COc1ccccc1-n1nc(C)c(-c2ccccc2)c1N | 23
O=c1c(Sc2ccccc2)c(C(F)(F)F)[nH]n1-c1ccccc1 | 22.4
Cn1cc(Cl)cc(C(=O)Nc2ccccc2)c1=O | 15.2
Cc1nc2c(C(=O)NCc3cccs3)cnn2c(C)c1Cc1ccccc1 | 19.5
COc1cc(-c2noc(CCCC(=O)NC3CCCCC3)n2)cc(OC)c1OC | -4.29
O=C(NNC(=O)c1cc(-c2ccccc2Cl)nc2ccccc12)c1csc(N2CCOCC2)n1 | -17.1
CN(C)C(=O)Oc1ccc(Cl)c2ccccc12 | 3.97
O=C(N/N=C/c1ccncc1)C12CC3CC(CC(C3)C1)C2 | -5.53
Nc1nc(-c2ccccc2)c(N=Nc2cccnc2)s1 | 21.6
Cl.OC(COCc1ccc2c(c1)OCO2)CN1CCC(Cc2ccccc2)CC1 (centres unmarked) | -87.6
COc1ccc(C)cc1NC(=S)NN1CCN(C)CC1 | 22.1
CCC1=C(C)CN(C(=O)NCCc2ccc(S(=O)(=O)NC(=O)NC3CCC(C)CC3)cc2)C1=O (centres unmarked) | -13.5
O=C(NC(=S)NCc1ccco1)c1ccc(Br)cc1 | 13.2
Cc1cc(C)n(/N=C/c2cccc(O)c2)c(=O)c1C(N)=O | 4.31
COc1cc(CC(=O)OCC(=O)NC2CCCCC2C)cc(OC)c1OC (centres unmarked) | 2.43
COc1ccc(-c2ccc(SCC(=O)N3c4ccccc4CC3C)nn2)cc1OC (centres unmarked) | -4.75
COc1ccc(-c2cncnc2-c2ccc(OC)cc2O)cc1 | 7.35
O=C(Oc1ccc(F)cc1C(=O)/C=C/c1cccs1)c1cccc([N+](=O)[O-])c1 | 17.3
O=C(Nn1cnnc1)C(Sc1ccccc1)c1ccccc1 (centres unmarked) | 9.55

Structure (SMILES) | hERG current change (%, negative = inhibition) at 10uM [%]
COc1cc(/C=C2/C(=O)N(c3ccc(C)c(C)c3)N=C2C)cc([N+](=O)[O-])c1O | 0.685
COc1ccc(CSCCc2n[nH]c(=S)n2-c2ccccc2)cc1 | 20.1
COC(=O)c1ccc(NS(=O)(=O)c2cc3c4c(c2)C(C)C(=O)N4CCC3)cc1 (centres unmarked) | 2.73
O=C1CC(N2CCN(c3ccc(F)cc3)CC2)C(=O)N1Cc1ccccc1 (centres unmarked) | -17.6
CCCc1ccc(C(=O)NNC(=O)c2ccc(Br)cc2)cc1 | 9
CCc1ccc(N(CC)c2ncnc3nc[nH]c23)cc1 | -4.89
COc1ccc2c(c1)c(=O)c(C(=O)c1ccc(Cl)cc1)cn2CC(=O)Nc1ccc(F)cc1 | 12.4
CC(NC1=NCCS1)c1ccccc1 (centres unmarked) | 9.37
Cc1[nH]n(-c2ccccc2)c(=O)c1N=Nc1cccc(S(=O)(=O)N2CCOCC2)c1 | 5.49
COC(=O)c1ccc(-n2nnnc2SCc2ccccc2OC)cc1 | -6.11
O=C(OC(c1ccccc1)c1nccc2ccccc12)c1cccc([N+](=O)[O-])c1 (centres unmarked) | 8.01
COc1ccc(CN2CCNC(=O)C2CC(=O)NCc2cccc(C)n2)c(OC)c1 (centres unmarked) | 6.54
COC(=O)CCCSc1nccn1-c1ccccc1 | -29.4
COCC(=O)Nc1nc2n(n1)C(c1ccccc1)CC(c1ccc(OC)cc1)N2 (centres unmarked) | -3.73
COc1ccccc1C(=O)CSc1ccccn1 | -37.4
Oc1ccc(N=Nc2ccc(Br)cc2)c(O)c1 | 17.2
COc1ccc(NCc2cc3ccccc3[nH]c2=O)cc1 | 4.74
CCOC(=O)Cc1csc(NC(=O)CCS(=O)(=O)Cc2ccccc2)n1 | 1.64
Cc1ccc(S(=O)(=O)N(C)c2ccc(C(=O)N3CCOCC3)cc2)cc1 | 8.18
